The record followed here is PubChem BioAssay AID1508624 (National Center for Advancing Translational Sciences (NCATS), 2021).

About 120 (0.25%) of roughly 48,000 compounds were called active. About 4% were inconclusive and are not listed. The call rests on the fitted dose curve; in most records, active means well fitted activation curve with a large enough effect; inconclusive means small, poorly fitted or top-dose-only effect, or another doubt; inactive means no such curve, though single readings can be large or run the other way. The list shows a part of the results.

The nature of the assay: Primary qHTS for Identification of Small Molecule Activators of Huntingtin-Antisense Promoter Activity. Further: nearly all actives have a fitted effect of over 55% in size. As to conditions: HEK293 HTT-AS promoter firefly luciferase reporter, 24 h; series mostly up to 57.5 µM; activity change, positive = activation: at the top concentration. The method in brief:
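HEK293 Fluc reporter, 2,500 cells/well, 24 h pre-culture; cpds up to 57.5 uM final, 24 h 37 degrees C; Dual-Glo, 10 min RT; normalized vehicle = 0%, zero RLU = -100%.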
Consider `Cn1c(=O)c2c(ncn2CC(=O)O)n(C)c1=O`, for which the “activity change, positive = activation” value is inactive: -3.39%. Under `Cc1cc(C)c2c(n1)nn1c(C)c(CCC(=O)NCc3ccccc3Cl)c(C)nc21` stands inactive: -17.4%. Under `COC(=O)c1c(C)sc(-c2c(-c3ccc4c(c3)OCCO4)[nH]c3[nH]c(=O)[nH]c(=O)c23)c1O` stands inactive: -23.5%; under `CCOc1ccc(-c2cc3nc(C4CCN(C(=O)OC(C)(C)C)CC4)c(C(=O)Nc4ccc(C)cc4Cl)cn3n2)cc1`, inactive: 19.7%; under `O=S(=O)(c1ccc(Br)cc1)c1nnn2c1nc(Nc1cccc(C(F)(F)F)c1)c1sccc12`, inactive: -11.6%. Next, `CN1CCSc2ccc(C(=O)NCc3ccccc3F)cc21`: inactive: 14.7%. With `O=C(CN(CCc1ccccc1)S(=O)(=O)c1ccccc1)NCc1ccc(Cl)cc1`, the “activity change, positive = activation” value was inactive: -26.1%. Next, `COc1cc(CNc2ccc3c(c2)ncn3C(C)C)cc(OC)c1OC`: inactive: -28.2%; `Cc1cc(Cl)ccc1Nc1ncnc2onc(C)c12`: inactive: -19.2%; `Cc1ccc(Cl)cc1N1CCN(C(=O)c2cc(S(=O)(=O)N3CCCCCC3)cn2C)CC1`: inactive: -38%. Next, `Fc1ccccc1OCc1nc(-c2ccc(-n3cccc3)cc2)no1`: inactive: 13%; `O=C(Nc1ccccc1Cl)C1CCN(c2nc3ccccc3[nH]2)CC1`: inactive: -7.76%.

For the compound `COc1cccc(NC(=O)CSCn2nnc3c(=O)[nH]c(Cc4ccc(F)cc4)nc32)c1`, the “activity change, positive = activation” value is inactive: 15.6%. As to `CN(Cc1ccc(F)cc1)S(=O)(=O)c1nnc(NC(=O)c2ccc(F)cc2)s1`, the “activity change, positive = activation” value was inactive: -38.3%. With `COC(=O)c1ccc2c(c1)N(CC(=O)Nc1cccc(C(F)(F)F)c1)C(=O)c1ccccc1S2`, the “activity change, positive = activation” value was inactive: -14.6%. As for `O=C(CSc1nc2c([nH]c3ccccc32)c(=O)n1-c1ccccc1F)Nc1ccccc1C(F)(F)F`, the “activity change, positive = activation” value is inactive: -43.3%. Under `COc1ccc(NC(=O)C2CCCN(S(=O)(=O)c3ccc4c(c3)CCCN4C(C)=O)C2)cc1` (configuration not stated) stands inactive: -28.2%; under `Cc1ccccc1-n1c(=O)c2c3c(sc2n2cnnc12)CCCC3`, inactive: 7.92% [at 11.5 µM, percent change from vehicle, -100% = no light]; under `COc1ccc(CNC(=O)C2CCN(c3nnc(-n4cccc4CNc4ccc(C)cc4)s3)CC2)c(OC)c1`, inactive: -32.1%.

As for `Cc1ccc(S(=O)(=O)c2nc(-c3cccc(C)c3)oc2N2CCCCC2)cc1`, the “activity change, positive = activation” value is inactive: -0.52%.

As for `O=S(=O)(Nc1cccc(-c2ccc(N3CCCC3)nn2)c1)c1ccc(F)cc1F`, the “activity change, positive = activation” value was inactive: 15.5%. Next, `COc1ccc(NC(=O)CSc2c3c(nc4ccccc24)CCC3)c(OC)c1`: inactive: -10.9%; `COc1ccc(N2CCN(C(=O)CN(C)S(=O)(=O)c3cccs3)CC2)cc1`: inactive: -7.13%. Take `COc1ccc(Cn2ccnc2SCC(=O)Nc2cc(C(F)(F)F)ccc2Cl)cc1`: the “activity change, positive = activation” value was inactive: -0.536%. Next, `COc1cccc(Nc2sc(C(=O)c3ccc(F)cc3)c(N)c2C(=O)NCc2ccc(C)cc2)c1`: inactive: -49.4%; `COc1ccc(-c2cn3nc(N4CCCC(C(=O)NCc5ccccc5C)C4)sc3n2)cc1` (configuration not stated): inactive: 3.05%; `CCOC(=O)c1ccccc1NC(=O)c1sc2ccccc2c1Cl`: inactive: 20.6%.

For `CCN(CC)C(=O)Cn1c(=O)cc(C)c2c(C)nn(C)c21`, the “activity change, positive = activation” value is inactive: 12.9%. Under `COc1ccc(CNC(=O)c2cc3c(=O)n4cccc(C)c4nc3s2)cc1` stands inactive: -1.44%. Under `Cc1c(C(=O)Nc2ccc(F)c(F)c2)oc2ccc(S(=O)(=O)N(C)C3CCCCC3)cc12` stands inactive: -35.3%. Next, `CCOC(=O)c1ccc(NC(=O)C(C)N(c2ccc(OCC)cc2)S(C)(=O)=O)cc1` (configuration not stated): inactive: -11.7%; `CCOC(=O)c1[nH]c(C)c(CCC(=O)NC(C)c2ccccc2)c1C` (configuration not stated): inactive: -8.29%. As for `CCN(CC)CCn1c2c(c(SCC(=O)Nc3cccc(C(F)(F)F)c3)nc1=O)CCC2`, the “activity change, positive = activation” value is inactive: -19.4%. Consider `Cc1cccc(CNC(=O)Cc2ccc(NC(=O)N3CCCCc4ccccc43)cc2)c1`, for which the “activity change, positive = activation” value was inactive: -16.7%. Under `COc1ccc(CCNC(=O)CCCCn2c(=O)c3ccccc3n(Cc3ccc(Cl)cc3)c2=O)cc1OC` stands inactive: -37.3%. Turning to `COc1cccc(CNC(=O)c2oc3ccc4c(c3c2C)C(=O)CC(C)(C)O4)c1OC`, the “activity change, positive = activation” value is inactive: 26.9%.

With `O=C(Nc1ccc(F)cc1)C1CCCN(c2ncnc3c2nc2n3CCCCC2)C1` (configuration not stated), the “activity change, positive = activation” value is inactive: -22.1%. `Cc1ccc(N(C)C(=O)Cn2cc(S(=O)(=O)N3CCCC3)c(S(=O)(=O)N3CCCC3)c2)cc1`: the activity change, positive = activation was inactive: -5.79% [at 11.5 µM, percent change from vehicle, -100% = no light]. Next, `COc1cccc(-c2nc(CS(=O)(=O)CC(=O)NCCc3ccc(OC)c(OC)c3)c(C)o2)c1`: inactive: -19.1%; `Cc1ccc(C(=O)Nc2nc(-c3nnn(-c4cccc(Cl)c4C)c3C)ns2)cc1C`: inactive: -27%; `COc1ccc(NS(=O)(=O)c2ccc3c(c2)CC(C)N3C(C)=O)c(OC)c1` (configuration not stated): inactive: -23.8%. Next, `Cn1c(=O)c2c(n3ncnc13)NC(=O)CC2c1cccc(F)c1` (configuration not stated): inactive: -9.19%; `CCOC(=O)C1=C(CN2CCN(c3cccc(OC)c3)CC2)NC(=O)NC1c1ccc(OC)cc1` (configuration not stated): inactive: -18.9%; `COc1ccc(NC(=O)c2oc3c(c2C)-c2nn(Cc4ccccc4Cl)cc2CC3)cc1OC`: inactive: -37.7%. Next, `Cc1ccc(-n2c(=O)c3c(cnn3C)n(CC(=O)Nc3c(C)cccc3C)c2=O)cc1`: inactive: -17.9%.

On to `C=Cc1ccc(CSc2nnc(C)n3c2cc2occc23)cc1`, for which the “activity change, positive = activation” value is inactive: -7.83%.

In the case of `CC(C)c1ccccc1NC(=O)CN(c1ccccc1)S(=O)(=O)N(C)C`, the “activity change, positive = activation” value was inactive: -3.69%. `Cc1ccc2c(c1)CC(C)N2S(=O)(=O)c1nnc(NC(=O)c2ccccc2F)s1` (configuration not stated): the “activity change, positive = activation” value is inactive: -35.8%. Under `O=C(Cn1ccn(-c2cccc(Cl)c2)c(=O)c1=O)c1ccc(F)cc1` stands inactive: -5.71%; under `O=C(NCCCN1CCN(c2ccc(F)cc2)CC1)c1sc2ncccc2c1-n1cccc1`, inactive: -13.3%.

On to `CCOc1ccc(CNC(=O)c2[nH]c3ccccc3c2Sc2ccc(C)cc2)cc1`, for which the “activity change, positive = activation” value is inactive: -3.55%.

As to `Cc1ccc(NC(=O)CCS(=O)(=O)c2ccc(Br)cc2)c(C)c1`, the “activity change, positive = activation” value was inactive: -10.7%. Next, `CCOC(=O)c1cc(-c2ccccc2)n(CCC(=O)Nc2ccc(C)cc2Cl)c1C`: inactive: -16.4%. Turning to `CSc1ccc(C(=O)c2[nH]c(=O)[nH]c2C)cc1`, the “activity change, positive = activation” value is inactive: 23.2%. For `COc1ccc(OC)c(S(=O)(=O)N2Cc3ccccc3CC2C(=O)Nc2ccc(Cl)cc2)c1` (configuration not stated), the “activity change, positive = activation” value was inactive: -32.9%. `Cc1ccc2c(c1)C(=O)C(=O)N2Cc1ccc(OC(C)C)cc1`: the “activity change, positive = activation” value is inactive: -41.6%. As for `CCOc1ccc(-c2nn(-c3ccccc3)cc2C2NC(=O)NC(C)=C2C(=O)OC(C)C)cc1C` (configuration not stated), the “activity change, positive = activation” value was inactive: -33.3%. Under `Cc1ccc(-n2nc(CO)c(C(=O)NCCCCc3ccccc3)n2)cc1` stands inactive: -7.26%; under `Cc1cc(C)cc(NC(=O)CCS(=O)(=O)c2ccc3nc(C)sc3c2)c1`, inactive: -18%; under `O=C1C(c2ccc(F)cc2)N(Cc2ccccc2Cl)C(=O)CN1C1CCCCC1` (configuration not stated), inactive: -31.5%. Under `CC1=C(c2ccc(C)c(C)c2)S(=O)(=O)N=C1N1CCC(C(=O)Nc2cccc(F)c2)CC1` stands inactive: -24.9%. Under `COc1ccccc1NC(=O)Cn1c(=O)n(-c2cccc(Cl)c2)c(=O)c2c1c1cc(C)ccc1n2C` stands inactive: -14.8%; under `Cc1cc(C)cc(Nc2nnc(-n3nc(C)cc3C)c3ccccc23)c1`, inactive: -16.9%; under `CCc1ccccc1NC(=O)CSc1ncc(S(=O)(=O)c2ccccc2)c(=O)[nH]1`, inactive: -3.55%.

With `Cc1cccc(OCC(=O)Nc2ccc(Cl)c(-c3nc4ccccc4[nH]3)c2)c1`, the “activity change, positive = activation” value was inactive: -14.4%. Take `CC(C)(S)[C@@H](N)C(=O)O`: the “activity change, positive = activation” value was inactive: -92.8%. Next, `Cc1ccc2c(CC(=O)N(Cc3ccc(Cl)cc3)Cc3ccco3)coc2c1`: inactive: -30.6%; `Cc1ccccc1Nc1cc(C(=O)NCCc2ccc(Cl)cc2)c2ccccc2n1`: inactive: -39.7%. With `COc1cccc(C(=O)Nc2c(C(=O)c3ccc(F)cc3)oc3ccccc23)c1`, the “activity change, positive = activation” value was inactive: -10.3%.

As to `COc1cc(C2c3c(oc4ccc(C)cc4c3=O)C(=O)N2Cc2ccccc2)ccc1O` (configuration not stated), the “activity change, positive = activation” value was inactive: -11.6%. In the case of `Cc1oc(-c2ccc(Cl)cc2)nc1CSCC(=O)NCc1ccccc1Cl`, the “activity change, positive = activation” value was inactive: -39.3%.

On to `CC(CNC(=O)Cn1c(-c2cccs2)cc2ccccc21)c1ccccc1` (configuration not stated), for which the “activity change, positive = activation” value was inactive: -36.8%.

Regarding `CCC(=O)N1CCc2cc(Br)cc(S(=O)(=O)N3CCCC(C(=O)NCc4ccc(OC)cc4)C3)c21` (configuration not stated), the “activity change, positive = activation” value is inactive: -21.5%. In the case of `COC(=O)Cc1c(C)c2ccc3c(c2oc1=O)CN(Cc1ccccc1OC)CO3`, the “activity change, positive = activation” value is inactive: -14%.

Take `CCCOc1ccc(C2c3c(-c4ccccc4O)n[nH]c3C(=O)N2CCCOCC)cc1OCC` (configuration not stated): the “activity change, positive = activation” value was inactive: -25.7%. With `O=C(Nc1cccc(F)c1)c1cccc2c1C(=O)N(C1CCCCC1)C2`, the “activity change, positive = activation” value was inactive: -16.2%.

With `Cc1ccc(Cl)cc1N1CCN(CCCNC(=O)c2nnc(Cc3cccc(Cl)c3)o2)CC1`, the “activity change, positive = activation” value is inactive: -46.1%. As to `CCC(=O)N1CCCc2cc(S(=O)(=O)N3CCC(C(=O)Nc4ccccc4CC)CC3)ccc21`, the “activity change, positive = activation” value is inactive: -46.5%. Regarding `O=C(Cn1cc(C(=O)C2CC2)c2ccccc21)Nc1ccc(Br)cc1`, the “activity change, positive = activation” value was inactive: -18.8%.

With `COc1ccccc1N1CCN(c2ccc(-c3nc(-c4ccccc4)no3)cc2[N+](=O)[O-])CC1`, the “activity change, positive = activation” value is inactive: -7.14%. `Cc1ccc(C)c(Cn2c(=O)n(CCCCCC(=O)NCc3ccc4c(c3)OCO4)c(=O)c3sccc32)c1`: the “activity change, positive = activation” value is inactive: -31.5%. As for `CC(=O)c1ccc(NC(=O)CCCc2nc(-c3cccc(C)c3)no2)cc1`, the “activity change, positive = activation” value was inactive: -13.9%. With `Cc1c(C)n(Cc2ccc(F)cc2)c2ccc(C(=O)Nc3ccc(Cl)cc3)cc12`, the “activity change, positive = activation” value is inactive: -30.5%.

For the compound `O=C(CC1C(=O)N(c2ccccc2)C(=O)N1Cc1ccc2c(c1)OCO2)Nc1ccccc1` (configuration not stated), the “activity change, positive = activation” value was inactive: 0%. Consider `O=C1CC(c2nnc(Cc3ccccc3Cl)o2)CN1c1ccccc1` (configuration not stated), for which the “activity change, positive = activation” value is inactive: -17.1%. For the compound `Cc1ccc(-c2cc3c(n2-c2ccccc2F)CC(C)(C)CC3=O)cc1`, the “activity change, positive = activation” value is inactive: -1.58%. For `CCOC(=O)c1ccc(CN(Cc2ccccc2C)S(=O)(=O)c2ccc(F)c(C(=O)Nc3cccc(OC)c3)c2)cc1`, the “activity change, positive = activation” value was inactive: -21.5%. For the compound `O=C(CN1C(=O)CSc2ccc(S(=O)(=O)N3CCCC3)cc21)NCc1ccc(Cl)cc1`, the “activity change, positive = activation” value is inactive: -20.9%.

As for `COc1ccc(NC(=O)CN2C(=O)COc3ccc(S(=O)(=O)N4CCCCC4)cc32)cc1Cl`, the “activity change, positive = activation” value is inactive: -19.4%. Next, `COc1ccc(NC(=O)c2oc3ccccc3c2NC(=O)Cc2cccs2)cc1`: inactive: 1.28%; `CCOC(=O)c1cnc2ccc(C)cc2c1NCCc1ccc(OC)c(OC)c1`: inactive: 2.14%; `COc1ccc(C)cc1NC(=O)N1CCN(c2cc(-c3noc(C)n3)ccc2C)CC1`: inactive: -43.3%.
